# Source: PMC4336329 (PLoS ONE, 2015)
# Screen size: about 310,000 compounds; about 14,000 (4.5%) showed an effect of 50% or more. The effect is printed as a negative number. The list shows a part of the results.
# Target: human ether-à-go-go-related gene (hERG) potassium channel (human, UniProt Q12809)
# Test: primary screen, population patch clamp on CHO cells stably expressing hERG
# 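Also: peak tail current of the secondary pulse compared with the same well before compound.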
# human ether-à-go-go-related gene (hERG) potassium channel, sequence (Q12809 whole entry, looked up): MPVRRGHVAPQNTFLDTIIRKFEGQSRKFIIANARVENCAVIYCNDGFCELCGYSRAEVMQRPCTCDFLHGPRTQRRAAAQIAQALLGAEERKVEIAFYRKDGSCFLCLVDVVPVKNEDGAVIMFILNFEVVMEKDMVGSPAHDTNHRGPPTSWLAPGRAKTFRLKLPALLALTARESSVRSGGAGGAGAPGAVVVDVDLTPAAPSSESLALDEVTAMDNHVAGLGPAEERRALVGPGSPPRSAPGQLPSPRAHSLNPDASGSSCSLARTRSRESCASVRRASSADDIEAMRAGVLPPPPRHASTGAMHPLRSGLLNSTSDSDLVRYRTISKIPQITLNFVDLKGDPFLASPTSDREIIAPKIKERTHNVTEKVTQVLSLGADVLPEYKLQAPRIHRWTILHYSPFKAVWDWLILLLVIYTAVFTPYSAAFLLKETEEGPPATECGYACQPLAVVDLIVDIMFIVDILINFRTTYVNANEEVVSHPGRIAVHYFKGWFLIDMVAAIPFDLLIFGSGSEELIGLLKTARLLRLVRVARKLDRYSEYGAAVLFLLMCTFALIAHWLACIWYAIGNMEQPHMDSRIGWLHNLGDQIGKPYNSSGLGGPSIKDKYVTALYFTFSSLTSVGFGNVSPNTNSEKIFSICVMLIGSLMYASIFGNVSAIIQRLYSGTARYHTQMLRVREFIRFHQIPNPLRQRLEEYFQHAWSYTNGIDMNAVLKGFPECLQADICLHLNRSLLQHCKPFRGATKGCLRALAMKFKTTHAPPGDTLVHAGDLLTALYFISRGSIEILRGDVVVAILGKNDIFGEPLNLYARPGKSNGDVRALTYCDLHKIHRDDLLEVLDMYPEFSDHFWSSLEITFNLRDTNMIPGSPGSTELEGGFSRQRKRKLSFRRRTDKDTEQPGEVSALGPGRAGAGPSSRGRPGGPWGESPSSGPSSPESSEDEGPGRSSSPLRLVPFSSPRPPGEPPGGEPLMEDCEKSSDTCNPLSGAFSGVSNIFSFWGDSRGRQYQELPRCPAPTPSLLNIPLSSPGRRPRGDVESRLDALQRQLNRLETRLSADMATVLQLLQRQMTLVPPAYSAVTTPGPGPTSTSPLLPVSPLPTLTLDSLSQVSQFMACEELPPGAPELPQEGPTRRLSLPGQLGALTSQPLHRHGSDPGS
row,SMILES,"hERG current change (%, negative = inhibition) at 10uM"
1,CCN(CC)S(=O)(=O)c1cc(NC(=O)C2CSC3(C)CCC(=O)N23)ccc1C (stereo not shown),-27.5%
2,O=C(NCCCc1ccncc1)C1CCC(=O)N(Cc2cccc(C(F)(F)F)c2)C1 (stereo not shown),-18.7%
3,O=C(NNC(=S)Nc1ccc(Cl)cc1)c1cccs1,14.7%
4,Cc1cccc(CCNS(=O)(=O)c2ccc3c(c2)NC(=O)CS3)c1,1.64%
5,Cc1ccc(OCCNC(=O)Cn2cnc3c(=O)n(C)c(=O)n(C)c32)cc1C,10%
6,O=C(c1ccc2c(c1)OCO2)C1CCCN(Cc2c(F)cccc2Cl)C1 (stereo not shown),-32.5%
7,c1ccc(-c2nccc(-c3ccc4c(c3)OCO4)n2)cc1,12.9%
8,S=C1NCN(Cc2ccco2)CN1,12.2%
9,CC(C)(C)OC(=O)N1CCOCCOCCN(C(=O)OC(C)(C)C)CCOCC1,-2.05%
10,CCn1c(C(Cc2ccccc2)NC(=O)COC)nc2ccccc21 (stereo not shown),-8.89%
11,CCN1CCN(CC(=O)N2N=CCC2c2ccccc2)CC1 (stereo not shown),3.12%
12,COc1ccc(NC(=O)CSc2nnc(NC(=O)CN3CCOCC3)s2)cc1,19.2%
13,Cc1ccc(-n2nc(C)c(NC(=O)CCl)c2C)cc1C,-8%
14,COc1nccnc1NS(=O)(=O)c1ccc(NC(=O)c2ccccc2Br)cc1,17.4%
15,c1ccc(N2CCN(c3nc4ccccc4[nH]3)CC2)nc1,-64.4%
16,Cc1nn(CCc2n[nH]c(=S)n2-c2ccc(F)cc2)c(C)c1[N+](=O)[O-],21.3%
17,Cc1cc(C)c2cc(C#N)c(SCC(=O)Nc3cc(C)on3)nc2c1,6.84%
18,O=C(CSCC(=O)Nc1ccccc1)N/N=C/c1c(O)ccc2ccccc12,-5.17%
19,COc1ccc(-c2nc(CN3CCN(Cc4ccccc4)CC3)c(C)o2)cc1,-42.2%
20,COCc1cc(C)nc(SCC(=O)Nc2ccc3c(c2)OCO3)c1C#N,9.96%
21,CC(=O)Cc1nsc(NC(=O)c2ccc(-c3cccc(Cl)c3)o2)n1,10.4%
22,Cc1ccc(OC(C)C(=O)Nc2ccncc2)cc1C (stereo not shown),9.92%

row,SMILES,"hERG current change (%, negative = inhibition) at 10uM"
1,COc1c2c(cc3c1OCO3)CC[N+](C)=C2.[I-],-0.238%
2,COc1ccc(-c2cnc(SCC(=O)Nc3cc(C)on3)n2Cc2ccco2)cc1,3.14%
3,Cc1nn(-c2ccc(Cl)nn2)c(=O)c2ccccc12,-3.04%
4,CC(C)C(C)NC(=O)COc1ncnc2ccccc12 (stereo not shown),15.3%
5,CN(C[C@H](c1ccccc1)N(C[C@H](Cc1ccccc1)N(CCc1ccccc1)N=O)N=O)N=O.[Na+],3.22%
6,O=[N+]([O-])c1ccc(/C=N/Nc2nc3ccccc3o2)cc1,22.6%
7,COc1cccc(C(=O)Cn2c(=O)n(CCC(=O)NCC3CCCO3)c(=O)c3cc(OC)c(OC)cc32)c1 (stereo not shown),-19.5%
8,Cn1c(=NC(=O)c2ccco2)sc2cccc(F)c21,-7.05%
9,O=C(CSc1nc(O)c(Cc2ccccc2)c(=O)[nH]1)Nc1nc2c(s1)CCCC2,25.1%
10,COc1ccc(-c2cc(-c3ccc(OC)cc3)nc(-c3ccc4c(c3)NC(=O)CO4)c2)cc1,-1.3%
11,CC(C)N1CCN(Cc2cc(F)ccc2-n2cccn2)CC1CCO (stereo not shown),11.2%
12,Cc1cc(C)n(S(=O)(=O)c2cc(Cl)ccc2Cl)n1,-2.9%
13,Cc1cc(C)cc(NC(=O)c2cc(C)nc3ccccc23)c1,3.97%
14,CCc1ccc(-n2nc3ccc(NC(=O)c4ccc5c(c4)OCO5)cc3n2)cc1,0.229%
15,O=[N+]([O-])c1cccc(/C=N\N=C2c3ccccc3-c3ccccc32)c1O,-4.7%
16,CCOc1ccc(S(=O)(=O)N(CC(=O)O)c2ccccc2)cc1,6.99%
17,c1ccc(Oc2cccc(OCCCCSc3ncccn3)c2)cc1,7.47%
18,CCCCOc1ccc(C2(C)NC(=O)N(C)C2=O)cc1 (stereo not shown),13%
19,COc1ccc(C2c3cc(OC)c(OC)cc3CCN2C2CC(=O)N(c3ccccc3)C2=O)cc1OC (stereo not shown),3.25%
20,CN(C)c1ccc(-c2nc3cc(N)ccc3o2)cc1,6.31%
21,CC1CCN(CCc2nc3cc(NC(=O)Nc4ccccc4)ccc3n2C)CC1,-44.4%
22,Cc1oc2c(c1C(=O)Nc1cccc(C(=O)O)c1)CCCC2,9.24%

row,SMILES,"hERG current change (%, negative = inhibition) at 10uM"
1,COc1ccccc1C(=O)NCCNc1ccc([N+](=O)[O-])cc1Cl,7.12%
2,COc1ccc2cc(C(=O)C3CCCN(C4CCOCC4)C3)ccc2c1 (stereo not shown),-63.5%
3,CCOC(=O)C(NCc1ccco1)(NC(=O)c1ccc(OC)cc1)C(F)(F)F (stereo not shown),8.05%
4,CN(C(=O)CN1CCCCCC1)c1c(N)n(Cc2ccccc2)c(=O)[nH]c1=O,8.69%
5,O=S(=O)(c1ccc(OCC(O)CN2CCc3ccccc3C2)cc1)N1CCOCC1 (stereo not shown),-4.43%
6,Clc1ccc(-c2c[n+](Cc3ccc(Cl)cc3Cl)c3n2CCCCC3)cc1.[Br-],-66%
7,CCCc1nc2c(s1)CCc1onc(-c3ccc(Cl)cc3)c1-2,16.7%
8,Cc1ccc(NC(=O)N2CCC(O)(c3cccnc3)CC2)cc1,5.23%
9,COc1ccccc1Nc1nc(N)nc(CSCCO)n1,15%
10,N#C/C(=C(/O)COc1ccc(Cl)cc1)c1nc2ccccc2s1,25%
11,CC(C)OCCCNC(=O)c1c(N)n(/N=C/c2cccs2)c2nc3ccccc3nc12,-7.45%
12,CCCCCCC1CCC(C(=O)N2CCOCC2)CC1 (stereo not shown),-7.5%
13,CC(=O)Nc1ccccc1-c1nc2ccc(C(=O)N3CCN(c4ccccc4)CC3)cc2[nH]c1=O,-3.23%
14,CCc1ccc(Nc2nnc(SCC(=O)NC(=O)CN3CCCC3=O)s2)cc1,4.35%
15,c1ccc2c(c1)ccc1nnc(SCc3ccc4c(c3)OCCO4)n12,7.34%
16,Cc1ccc2nc(-c3ccc4c(c3)NC(=O)CO4)cn2c1,14.8%
17,COc1ccccc1C(=O)Nc1ccccc1C(=O)N1C(C)CCCC1C (stereo not shown),0.331%
18,Cc1cc(NC(=O)Cn2cnc3c2c(=O)n(C)c(=O)n3C)n(-c2ccccc2)n1,4.12%
19,COc1cc(N)c(C(O)c2nccc3cc(OC)c(OC)cc23)cc1OC (stereo not shown),13.9%
20,CC1(C)CC(N2CN(C3CCCCC3)CC2=O)CC(C)(C)N1,16%
21,Clc1ccc(-c2nnc(NCCN3CCCC3)c3ccccc23)cc1,-71.3%
22,CCOCCOC(=O)COc1ccc2c(-c3ccccc3)cc(=O)oc2c1,-28.7%

row,SMILES,"hERG current change (%, negative = inhibition) at 10uM"
1,CCOc1ccc2ccccc2c1CNCCc1ccc(S(N)(=O)=O)cc1.Cl,-73.1%
2,CN1CCN(c2ncnc3scc(-c4ccccc4Cl)c23)CC1,-41.4%
3,NC(=O)c1nnn(-c2nonc2N)c1-c1ccc([N+](=O)[O-])cc1,24.7%
4,CC(C)NC(=O)Cn1nnc(-c2cccc(NC(=O)c3ccccc3F)c2)n1,-1.23%
5,Cc1c(Br)c(C(=O)NNC(=O)c2ccc(C(C)(C)C)cc2)nn1C,12.7%
6,CCOC(=O)CSc1nnc(-c2ccc(OC)cc2)n1CC,7.84%
7,N#Cc1c(NC(=O)CCC(=O)O)sc2c1CCCCC2,14.9%
8,COCCNC(=S)NNC(=O)c1cccs1,16%
9,O=C(CSc1nnc(-c2ccc(F)cc2)c2ccccc12)NCC1CCCO1 (stereo not shown),-31.6%
10,COCCCNC(=O)c1ccc2c(c1)nc(C)n2-c1cccc(C)c1,6.05%
11,Cc1ccc(/C=N/N2CCN(c3ccncc3S(=O)(=O)N3CCCCC3)CC2)cc1,2.02%
12,COc1ccccc1N1CCN(C(=O)/C=C/c2ccc(C)cc2)CC1,-11.2%
13,Cc1ccc(NC(=O)c2cc3ccccc3oc2=N)cc1,23.8%
14,CN(C)NC1=CC(=[N+]2CCCC2)CC(C)(C)C1.[I-],14.6%
15,NS(=O)(=O)c1cccc(NC(=O)CC23CC4CC(C2)CC(CC(=O)Nc2cccc(S(N)(=O)=O)c2)(C4)C3)c1,9.49%
16,Cc1ccc(NC(=O)COC(=O)CNC(=O)c2ccc(C)s2)cc1,11.3%
17,Cc1ccc(N(C)S(=O)(=O)c2c(C)noc2/C=C/N(C)C)cc1,-1.41%
18,CCCn1c(=N)c(S(=O)(=O)c2ccc(F)cc2)cc2c(=O)n3ccccc3nc21,-8.53%
19,COc1cccc(/C=C/C(=O)NCCc2ccc3c(c2)OCCO3)c1,-17.4%
20,CC1CN(C2CCN(C(=O)c3ccccc3)CC2)CC(C)O1 (stereo not shown),-3.81%
21,COc1cc(/C=N/NC(=O)c2ccc(N(C)S(=O)(=O)c3ccccc3)cc2)cc(OC)c1OC,-12.7%
22,COc1c(F)c(F)c(C(=O)Nc2ccc(N3CCN(Cc4ccccc4)CC3)cc2)c(F)c1F,-14.6%
